# Laboratory results published in PubChem BioAssay AID504832 (National Center for Advancing Translational Sciences (NCATS), 2011).
# In all, about 310,000 compounds went through this assay and about 18,000 (5.8%) were called active. Inconclusive means that the source gave no clear call. Such entries were picked first, then a sample of the others. Calls come from the whole dose curve; as a rule, active = well fitted inhibition curve with a large enough effect; inconclusive = small, poorly fitted or top-dose-only effect, or another doubt; inactive = no such curve, though single readings can be large or run the other way. Potencies of inconclusive entries are left out as doubtful fits.
# Assay: Primary qHTS for delayed death inhibitors of the malarial parasite plastid, 48 hour incubation
# Conditions: P. falciparum luciferase growth in erythrocytes; series mostly up to 28.7 µM; activity change, negative = inhibition: at the top concentration
# In short: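 Compounds are pin-transferred into medium, infected erythrocytes (2% hematocrit, 0.1% parasitemia final) are added, and plates sit one parasite generation at 37 C in 5% CO2. Detection reagent is then added and luminescence measured.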
# % is set by controls: 0 for no effect and ±100 for the full control effect; potency is the fitted concentration of half-maximal effect; tags give direction and shape of the fitted curve.
SMILES,Potency,"activity change, negative = inhibition"
CCC1CN(C(=O)N2CCC(C(=O)NCc3cc(OC)c(OC)c(OC)c3)CC2)c2ccccc2O1 (stereo not drawn),"inconclusive [inhibitor, partial curve, poor fit]",–
N#Cc1c(N2CCN(c3ccc(F)cc3)CC2)nc(N)c2c(N)nc3c(c12)CC(=O)N3C1CC1,active: 0.928 µM,–
O=S(=O)(c1ccc2nc(Nc3ccccc3)ccc2c1)N1CCCCC1,active: 10.4 µM,–
O=C1COc2ccc(-c3csc(=Nc4ccc(OC(F)F)cc4)n3CC3CCCO3)cc2N1 (stereo not drawn),"inconclusive [inhibitor, single point]",–
COc1ccc(CCC(=O)Nc2ccc(Cn3ccnc3)cc2)cc1,"inconclusive [inhibitor, single point]",–
CCOc1ccc(NCc2cccn2-c2nnc(N3CCC(C(=O)NCCCN4C(C)CCCC4C)CC3)s2)cc1 (stereo not drawn),"inconclusive [inhibitor, partial curve, poor fit]",–
COc1ccc(CCNC(=O)c2cc(=O)c3cc(C)ccc3o2)cc1,–,inactive: -13.1%
COc1ccccc1CCC(=O)Nc1nc2ccccc2[nH]1,–,inactive: 85.4%
COCCCn1cnc2c(c1=O)c1nc3ccccc3nc1n2-c1ccc(C)cc1,"inconclusive [inhibitor, partial curve, poor fit]",–
COc1ccc(OCCCC(=O)Nc2nnc(C3CCCO3)s2)cc1 (stereo not drawn),"inconclusive [inhibitor, partial curve, poor fit]",–
CCC(c1nnnn1C1CCCC1)N1CCN(c2cccc(OC)c2)CC1 (stereo not drawn),active: 11.7 µM,–
COCCN1C(=O)C(O)=C(C(C)=O)C1c1ccc(F)cc1 (stereo not drawn),–,inactive: -2.84%
CC(C)C[C@H](N)c1nnc(SCC(=O)Nc2ccc(Br)cc2)o1,–,inactive: 24.8%
CS(=O)(=O)N(CC(=O)N1CCCCCC1)c1ccc(Cl)cc1,"inconclusive [inhibitor, partial curve, poor fit]",–
CCOC(=O)C1CCCN(C(=O)c2ccc(C)c(S(=O)(=O)N3CCCCC3)c2)C1 (stereo not drawn),"inconclusive [inhibitor, single point]",–
COC(=O)[C@]1(C)N[C@H](c2ccc(SC3CCCCC3)cc2)[C@@H]2C(=O)N(C)C(=O)[C@@H]21,"inconclusive [inhibitor, single point]",–
O=S(=O)(c1ccc2c(c1)OCCO2)N1CCC(c2nc3ccc(Cl)cc3[nH]2)CC1,active: 11.7 µM,–
CC1CN(Cc2ccc(C#N)cc2Cl)CC(C)O1 (stereo not drawn),–,inactive: 5.65%
Cc1cccc2nc(CSc3nc4[nH]ncc4c(=O)n3-c3ccccc3Cl)cc(=O)n12,active: 9.28 µM,–
O=C(c1cccs1)N(CCN1CCCCC1)CC1CCCN(C2CCCC2)C1 (stereo not drawn),–,inactive: -5.38%
O=C(CCNc1ccc(F)c(Cl)c1)c1ccco1,–,inactive: -2.82%
O=C(Oc1cccc2cccnc12)c1cccs1,"inconclusive [inhibitor, single point]",–
CC(C(=O)N1c2ccccc2CCc2ccccc21)n1nnc(-c2ccc(N(C)C)cc2)n1 (stereo not drawn),active: 7.38 µM,–

SMILES,Potency,"activity change, negative = inhibition"
C/C(=N\NC(=O)CSc1nc(C)cc(C)n1)c1cccc([N+](=O)[O-])c1,–,inactive: 25.4%
Cn1c2c(c(=O)c3ccccc31)CCCC2,–,inactive: -10.4%
O=C(O)C(Cc1ccc(F)cc1)c1ccccc1 (stereo not drawn),–,inactive: 47%
COc1ccc(C(=O)Nc2c(Cl)cc(Cl)cc2C(=O)NCc2ccco2)cc1,"inconclusive [inhibitor, single point]",–
Cc1cccc(NC(=O)/C(=C/c2cccc([N+](=O)[O-])c2)NC(=O)c2cccs2)c1,"inconclusive [inhibitor, single point]",–
Cc1ccccc1NC(=O)CN(C)S(=O)(=O)c1ccc(-c2ccc(=O)[nH]n2)s1,"inconclusive [inhibitor, single point]",–
COc1ccccc1N1CCN(C(=O)C(Cc2ccccc2)NC(=O)C2CCCCC2)CC1 (stereo not drawn),active: 10.4 µM,–
CCCNC(=O)c1cc(S(=O)(=O)N2CCc3ccccc32)cn1C,–,inactive: 8.95%
CC(=O)c1c(C)nc2sc3c(=N)n(N)cnc3c2c1-c1ccc(Cl)cc1,"inconclusive [inhibitor, single point]",–
CC(=O)C1=C(C)NC2=C(C(=O)c3ccccc32)C1c1ccccc1 (stereo not drawn),"inconclusive [inhibitor, single point]",–
O=C(c1ccc(S(=O)(=O)N2CCCCC2)cc1)N1CCN(Cc2ccc3c(c2)OCO3)CC1,"inconclusive [inhibitor, partial curve, poor fit]",–
CCc1ccc(CCC(=O)Nc2nc(CC(C)=O)ns2)o1,"inconclusive [inhibitor, single point]",–
CCN(CC)CCNC(=O)c1cc([N+](=O)[O-])c(N(C)C)cc1OC,"inconclusive [inhibitor, single point]",–
Cc1c(O)nc(SCC(=O)Nc2ccc3c4c(cccc24)CC3)n(-c2ccccc2)c1=O,–,inactive: -0.358%
Cc1nn2cc(-c3ccccc3)nc2[nH]c1=O,"inconclusive [inhibitor, full curve]",–
CC(=O)O[C@]1(C(C)=O)CC[C@@H]2[C@@H]3C=C(C)C4=CC(=O)CC[C@@]4(C)[C@H]3CC[C@]21C,"inconclusive [inhibitor, single point]",–
CCc1ccc2oc(=O)cc(CN3CCN(Cc4ccccc4)CC3)c2c1,"inconclusive [inhibitor, single point]",–
CCOc1ccccc1Cn1c(=O)sc2ccccc21,–,inactive: 4.12%
CSc1ncccc1C(=O)N1CCCC(CCC(=O)NCc2ccccc2F)C1 (stereo not drawn),"inconclusive [inhibitor, partial curve]",–
NC(=O)C1CCN(c2ccnc3cc(Cl)ccc23)CC1,"inconclusive [inhibitor, single point]",–
COCCn1c(SCC(=O)Nc2ccc(F)cc2)nc2c([nH]c3ccccc32)c1=O,"inconclusive [inhibitor, partial curve]",–
Cc1cccc(OCCCOc2cccc3cccnc23)c1C,"inconclusive [inhibitor, single point]",–
O=C(c1cccc(Br)c1)N1CCN(C2=NS(=O)(=O)c3ccccc32)CC1,"inconclusive [inhibitor, single point]",–

SMILES,Potency,"activity change, negative = inhibition"
O=C(COc1ccc(F)cc1Br)N1CCN(c2ncccn2)CC1,"inconclusive [inhibitor, single point]",–
O=C(Nc1ccc2nc3n(c(=O)c2c1)CCCCC3)c1cc([N+](=O)[O-])ccc1F,–,inactive: 3.88%
CCOc1cc(S(=O)(=O)NCC2OCCc3ccccc32)c(OCC)cc1-n1cnnn1 (stereo not drawn),"inconclusive [inhibitor, partial curve]",–
CC1CCc2[nH]c3ccc(C(=O)N(C)CC(=O)Nc4ccccc4Br)cc3c2C1 (stereo not drawn),"inconclusive [inhibitor, partial curve, poor fit]",–
Cc1ccc(Cl)cc1N1CCN(c2cccc[n+]2C)CC1,active: 4.15 µM,–
Cc1ccc(NC(=O)c2nc[nH]c2C(=O)NCCCCCNC(=O)OC(C)(C)C)cc1,active: 3.29 µM,–
CCOP(=O)(OCC)c1nc(-c2ccccc2)oc1NCc1ccccc1,active: 7.38 µM,–
CCN(CC)Cc1c(C(=O)N/N=C/c2ccc(OCc3ccccc3C)cc2)nnn1-c1nonc1N,"inconclusive [inhibitor, single point]",–
Cc1nn(-c2ccccc2)c(C)c1NC(=O)COC(=O)c1cc([N+](=O)[O-])ccc1NCCO,"inconclusive [inhibitor, partial curve, poor fit]",–
Cn1c(=O)n(CCC(=O)O)c2ccccc21,"inconclusive [inhibitor, full curve, poor fit]",–
CCC(C)(C)C1CCc2[nH]nc(C(=O)NCc3ccccn3)c2C1 (stereo not drawn),active: 14.7 µM,–
CCN(CC(=O)Nc1c(F)cccc1F)C(=O)Cc1ccc(S(=O)(=O)N2CCOCC2)s1,"inconclusive [inhibitor, single point]",–
O=C(CSc1nc2ccccc2c(=O)[nH]1)Nc1ccccc1C(F)(F)F,–,inactive: 13.5%
COP(=O)(OC)C(Nc1ccc(C)cc1)c1ccc([N+](=O)[O-])cc1 (stereo not drawn),–,inactive: 40.6%
C=CCOc1cccc(/C=N/NC(=O)CN(c2cc(Cl)ccc2OC)S(=O)(=O)c2ccc(C)c([N+](=O)[O-])c2)c1,"inconclusive [inhibitor, partial curve]",–
O=C1CC(N(Cc2ccco2)C(=O)Nc2ccc(F)cc2)C(=O)N1c1ccc(F)cc1 (stereo not drawn),"inconclusive [inhibitor, single point]",–
OC1(c2ccc(Cl)cc2)CCN(Cc2cn[nH]c2-c2ccccc2)CC1,"inconclusive [inhibitor, single point]",–
CCc1cc(C(=O)NCC(c2ccco2)N2CCCCC2)sc1C (stereo not drawn),active: 9.28 µM,–
O=C(CCS(=O)(=O)c1ccc(Br)s1)N1CCc2ccccc21,"inconclusive [inhibitor, partial curve, poor fit]",–
CS(=O)(=O)c1ccc(N)c(SSc2cc(S(C)(=O)=O)ccc2N)c1,"inconclusive [inhibitor, single point]",–
Clc1ccccc1Cn1nnc2c(NCCN3CCOCC3)ncnc21,"inconclusive [inhibitor, partial curve, poor fit]",–
COC(=O)c1c(NC(=O)c2nc3nc(C)cc(C(F)F)n3n2)sc2c1CCC2,"inconclusive [inhibitor, partial curve, poor fit]",–
